# Out of some 50,000 compounds screened, about 800 (1.6%) showed an effect of 50% or more. Some of the results follow.
# Target: Bcl-2-like protein 10 (Homo sapiens) (UniProt Q9HD36)
# Assay: TR3 peptide-Bcl-B binding displacers, biochemical primary FP assay, phenotype converters (AID 1240);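 also: 0% = Bcl-B with tracer peptide and DMSO and 100% = tracer peptide lacking Bcl-B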
# Details: GST-Bcl-B / FITC-TR3 peptide fluorescence polarization; stronger effect = higher value; compound at 3.75 mg/L
# Sequence of UniProt Q9HD36 (Q9HD36 whole entry, looked up): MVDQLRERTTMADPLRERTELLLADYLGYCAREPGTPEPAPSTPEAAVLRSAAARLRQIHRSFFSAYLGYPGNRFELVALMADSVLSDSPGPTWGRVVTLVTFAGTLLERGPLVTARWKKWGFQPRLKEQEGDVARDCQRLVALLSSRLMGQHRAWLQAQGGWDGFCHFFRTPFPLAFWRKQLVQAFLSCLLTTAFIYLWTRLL
row,SMILES,displacement [%]
1,CCCCNC(=O)c1ccc(C(=O)NCCCC)cc1,-7.2
2,O=C(c1cccc(C(=O)N2CCN(c3cccc(Cl)c3)CC2)c1)N1CCN(c2cccc(Cl)c2)CC1,-8.7
3,C=CCOc1cc(Br)c(/C=C2\C(=O)NC(=O)N(c3ccc(C)cc3)C2=O)cc1OC,-1.5
4,CCOc1ccc(NS(=O)(=O)c2ccc(OC)c(OC)c2)cc1,6.6
5,CC(C)(C)c1ccccc1OCCCCn1ccnc1,13.9
6,Cc1ccc(C)c(OCC(O)CN2CCN(Cc3ccccc3)CC2)c1 (stereo unspecified),-4.6
7,COc1ccc2[nH]cc(CCC(=O)O)c2c1,9.5
8,C(=NN1CCN(Cc2ccccc2)CC1)c1ccncc1,-6.7
9,CC(C)CCNC(=O)c1ccc(Cl)c(Cl)c1,-2.8
10,CC1(C(=O)O)CCC(C(=O)NC2CCCCC2)C1(C)C (stereo unspecified),-6.2
11,COc1ccc(-c2noc(-c3ccc(Br)cc3)n2)cc1,13
12,CCOc1cc(/C=c2\sc3nc4ccccc4n3c2=O)ccc1OCCOc1ccc(Br)cc1,19
13,CN(C)S(=O)(=O)c1ccc(C(=O)Nc2ccc(Cl)cc2)cc1,6.6
14,Cc1ccc(NC(=S)NC2CC(C)(C)NC(C)(C)C2)cc1,8.5
15,O=C1NC(=O)C(=Cc2cc([N+](=O)[O-])cc(Br)c2O)C(=O)N1,19.7
16,O=C(O)C(C(=O)O)C1c2ccccc2Sc2ccccc21,6.7
17,COc1cccc(/C=C2/SC(=S)N(CCC(=O)Nc3ccc(O)cc3)C2=O)c1,7.2
18,Cc1cc(NC(=O)CN2C(=O)S/C(=C\c3ccccc3)C2=O)no1,-5.7
19,COCCNC(=O)C(=O)NCCc1ccc(OC)cc1,-15.8
20,O=C(CC(c1ccccc1)c1ccccc1)Nc1nc2ccccc2s1,-10.3
21,O=C1NC(=O)/C(=C\c2ccc(O)c(Cl)c2)N1,13.3
22,COc1cccc(/C=C(\C#N)c2nc(-c3cccs3)cs2)c1,-9.3
23,CS(=O)(=O)N(CC(=O)O)c1ccccc1Cl,0.7
24,C#CC(C)(C)NC(=O)CN(c1ccc(C)cc1)S(=O)(=O)c1ccc(F)cc1,5.5

row,SMILES,displacement [%]
1,CCc1ccc(NC(=O)CSc2nnc(-c3ccco3)n2-c2ccccc2)cc1,14.1
2,O=C(COc1c(Br)cc(Br)cc1Br)N/N=C/c1ccc(O)c([N+](=O)[O-])c1,8.9
3,CCOC(=O)c1sc2nc(C)n(/N=C/c3ccc4c(c3)OCO4)c(=O)c2c1C,-1.7
4,CCOC(=O)C1=C(O)/C(=C/c2ccc(N(C)C)cc2)SC1=Nc1cccc2ccccc12,168
5,Cc1ccc2nc(NC(=O)CSc3nc(C)cc(=O)[nH]3)sc2c1,10.7
6,Cc1ccc(NC(=O)C(=O)/C=C(/O)c2ccc(Br)cc2)cc1,-6.8
7,Cc1c(NC(=O)c2cnn3c2NC(c2cccs2)CC3C(F)(F)F)c(=O)n(-c2ccccc2)n1C (stereo unspecified),-2.2
8,CCOC(=O)C(C(=O)OCC)C(C)C#CCN(CC)CC (stereo unspecified),0.8
9,Cc1ccc(/C(O)=C2\C(=O)C(=O)N(c3ccc(O)cc3)C2c2ccc([N+](=O)[O-])cc2)cc1 (stereo unspecified),-9.6
10,NS(=O)(=O)c1cccc(C(=O)Nc2ccccc2)c1,-11.1
11,CCN(CC)CCNC(=O)c1ccccc1C(=O)c1ncc[nH]1,-3.1
12,COc1ccc(CCNC(=O)C(=O)Nc2cc(C)cc(C)c2)cc1OC,12.2
13,COc1ccc(NC(=O)C(=O)NCC2CCCO2)cc1Cl (stereo unspecified),7.1
14,CCC(C)c1ccc(NC(=O)c2oc3ccccc3c2C)cc1 (stereo unspecified),-10.5
15,CN1CCN(C(=O)C(=O)Nc2cccc3ccccc23)CC1,-2.6
16,N#CC1=C(N)OC2=C(C(=O)CC(c3ccccc3)C2)C1Cc1ccccc1 (stereo unspecified),6
17,CC1=NN(c2cccc(C(F)(F)F)c2)C(=O)/C1=C/c1ccc(N(C)C)cc1,19.4
18,COc1cccc(/C=C2\SC(=S)N(NC(=O)c3ccc([N+](=O)[O-])cc3)C2=O)c1,0
19,COc1ccc(CN2CCN(C(=O)CC(C)C)CC2)c(OC)c1OC,-16.4
20,COc1ccc(NC2CC(=O)N(c3ccccc3F)C2=O)cc1 (stereo unspecified),-2.3
21,CC1(C)CC(=O)C(CCC#N)(CCC#N)C(=O)C1,20.4
22,CCCN1C(=O)c2ccccc2NC1c1ccccc1F (stereo unspecified),8.3
23,N/C(=N\OC(=O)c1ccc(F)cc1)c1ccc(Cl)cc1,0.4
24,COc1ccc2c(c1)C(C)CC(C)(C)N2C(=O)c1sc2cc([N+](=O)[O-])ccc2c1Cl (stereo unspecified),-20.3

row,SMILES,displacement [%]
1,CCC1=NN(C(=O)c2cccc([N+](=O)[O-])c2)C(O)(c2ccncc2)C1 (stereo unspecified),-18.8
2,CCn1c(O)c(N=NC(=O)c2ccccc2Cl)c2ccccc21,-5.3
3,O=[N+]([O-])c1cccc(-c2noc(CCc3ccccc3)n2)c1,12.5
4,COC(=O)c1ccccc1NC(=O)CN(c1ccccc1)S(=O)(=O)c1ccccc1[N+](=O)[O-],15.9
5,O=C(CCc1ccccc1)Nc1ccc(Nc2ccccc2)cc1,-2.5
6,CCC1=NN2C(=N)/C(=C/c3ccc(-c4ccc([N+](=O)[O-])cc4Br)o3)C(=O)N=C2S1,4
7,COC(=O)c1sc2nc(-c3ccccc3)nc(N3CCOCC3)c2c1C,47.3
8,COc1ccc(C)cc1NC(=O)COc1ccccc1OC,-9.9
9,COc1ccc(Br)cc1/C=C/C(=O)Nc1ccc2ccccc2c1,11.6
10,CC1CCN(S(=O)(=O)c2cccc3cccnc23)CC1,5.2
11,Cn1c(-c2ccccc2)cc(O)c(C(=N)c2ccccc2)c1=O,-8.7
12,CC(=O)Nc1nc(C2CC2)cc(-c2ccco2)c1C#N,-10.7
13,O=C(/C=C/c1ccc([N+](=O)[O-])cc1)c1ccc(I)cc1,1.9
14,CCOc1ccc2c(c1)-c1c(ssc1=S)C(C)(C)N2C(=O)CSc1nnc(N)s1,13.3
15,CC(C)N1CCC(Nc2ccccc2)N1C=O (stereo unspecified),12.4
16,NC(=O)c1ccccc1NC(=O)C1CC=CCC1C(=O)O (stereo unspecified),-5.1
17,COc1cc2c(NCc3ccco3)cc(O)c(CC(=O)Nc3ccc(Cl)cc3)c2cc1OC,13
18,C=CCNC(=S)NC(=O)/C=C/c1ccccc1,13.8
19,CCOC(=O)C1=C(O)/C(=C/c2ccc(OCC(=O)NCCc3ccccc3)cc2)N=C1C,1.2
20,NC(=O)c1ccccc1NC(=O)c1ccccc1,-2.8
21,Cc1cccc(NC(=O)CSC(N)=O)c1,7.1
22,O=c1oc(-c2cccs2)nc2cc(Cl)ccc12,-3.2
23,CCN(C1=C(Cl)C(=O)N(c2ccccc2)C1=O)c1ccccc1,15.2
